System: human AsPC1 (G12D) pancreatic cancer xenografts
Conditions: AsPC1 xenograft mice
[1] = 24 h after ~2 nmol probe (80 nmol [111In]DOTA), n = 3

- Total %ID/g of control relative to [111In]nKRAS2 PNA probes (times less) (24 h, Table 2A): 26–83 times
- K/T (kidney/tumor ratio, tissue distribution) [1]: 12.12 ± 3.62
- T/B (tumor/blood ratio, tissue distribution) [1]: 3.18 ± 0.45
- T/M (tumor/muscle ratio, tissue distribution) [1]: 3.40 ± 0.74
SMILES: O=C([O-])CN1CCN(CC(=O)[O-])CCN(CC(=O)[O-])CCN(CC(=O)[O-])CC1.[111In+3] [[^111In]DOTA, reference compound]
